Hit rate of the full screen: of about 310,000 compounds, about 14,000 (4.5%) showed an effect of 50% or more. The effect is printed as a negative number. The list shows a part of the results.
Biological target: human ether-à-go-go-related gene (hERG) potassium channel (human, UniProt Q12809)
Assay: primary screen, population patch clamp on CHO cells stably expressing hERG
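Further: peak tail current of the secondary pulse compared with the same well before compound.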

human ether-à-go-go-related gene (hERG) potassium channel, sequence (Q12809 whole entry, looked up): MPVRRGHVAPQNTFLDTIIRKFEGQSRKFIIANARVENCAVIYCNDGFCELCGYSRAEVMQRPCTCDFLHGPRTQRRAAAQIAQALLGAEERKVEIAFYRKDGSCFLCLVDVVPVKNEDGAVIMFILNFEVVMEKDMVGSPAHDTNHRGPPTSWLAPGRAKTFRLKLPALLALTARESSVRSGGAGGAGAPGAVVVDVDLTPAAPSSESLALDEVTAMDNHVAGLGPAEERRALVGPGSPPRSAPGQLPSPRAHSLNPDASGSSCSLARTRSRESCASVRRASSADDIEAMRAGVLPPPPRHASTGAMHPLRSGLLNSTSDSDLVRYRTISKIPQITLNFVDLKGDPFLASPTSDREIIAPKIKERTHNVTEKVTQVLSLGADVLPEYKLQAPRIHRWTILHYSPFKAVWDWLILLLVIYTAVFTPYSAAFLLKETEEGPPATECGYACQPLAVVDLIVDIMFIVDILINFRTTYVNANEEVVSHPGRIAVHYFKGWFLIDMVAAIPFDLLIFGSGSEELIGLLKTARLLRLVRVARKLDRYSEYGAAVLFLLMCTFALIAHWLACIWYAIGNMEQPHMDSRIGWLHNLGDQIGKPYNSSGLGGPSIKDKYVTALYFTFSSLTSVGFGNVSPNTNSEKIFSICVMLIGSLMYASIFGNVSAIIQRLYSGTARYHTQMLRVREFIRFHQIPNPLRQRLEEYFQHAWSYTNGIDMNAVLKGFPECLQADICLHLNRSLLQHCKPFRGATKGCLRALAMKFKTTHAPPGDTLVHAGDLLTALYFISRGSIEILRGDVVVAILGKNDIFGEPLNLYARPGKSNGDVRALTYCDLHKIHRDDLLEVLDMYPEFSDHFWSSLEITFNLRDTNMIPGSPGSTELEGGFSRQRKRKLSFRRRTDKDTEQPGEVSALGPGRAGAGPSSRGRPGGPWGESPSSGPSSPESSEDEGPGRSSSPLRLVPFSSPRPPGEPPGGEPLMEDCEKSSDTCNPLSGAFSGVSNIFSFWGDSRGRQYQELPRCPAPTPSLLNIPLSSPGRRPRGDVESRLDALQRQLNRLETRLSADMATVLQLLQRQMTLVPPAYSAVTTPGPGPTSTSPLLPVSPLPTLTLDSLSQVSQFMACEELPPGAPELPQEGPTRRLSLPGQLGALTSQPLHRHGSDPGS

Row | SMILES | hERG current change (%, negative = inhibition) at 10uM [%]
1 | O=C(NCc1ccc2c(c1)OCO2)c1ccco1 | 3.19
2 | CCCC(=O)NC(C)C(c1cccs1)N1CCN(c2ccccc2)CC1 (stereo not drawn) | -7.64
3 | CCN(c1ccccc1)S(=O)(=O)c1ccc(C(=O)OC(C)C(=O)NCCC2=CCCCC2)cc1 (stereo not drawn) | -8.54
4 | CCOC(=O)CCN(Cc1sccc1C)S(=O)(=O)c1ccc(F)cc1 | -9.06
5 | O=c1[nH]c(C2CCN(S(=O)(=O)c3ccc(S(=O)(=O)NC4CC4)cc3)CC2)nc2c1nnn2Cc1ccc(F)cc1 | 3.81
6 | c1ccc(-c2csc3ncnc(NCc4ccccn4)c23)cc1 | -20.7
7 | CN1CCC(=NNC(=O)c2ccc(N(Cc3ccc(Cl)cc3)S(C)(=O)=O)cc2)CC1 | -38
8 | COCCNC(=O)C(c1ccc(C)o1)N(C(=O)c1snc(C(N)=O)c1N)c1cccc(C)c1 (stereo not drawn) | -23.4
9 | C=CCNC(=S)N1CCC(C(=O)c2ccc(C)cc2)CC1 | -41.2
10 | COc1ccccc1N1CCN(C2CCCN(C(=O)CCc3cnccn3)C2)CC1 (stereo not drawn) | 11
11 | Cc1ccn2c(=O)nc(SCC(=O)N3CCC(Cc4ccccc4)CC3)nc2c1 | -55.6
12 | COc1ccc(-n2nc([N+](=O)[O-])c(=NCc3cccnc3)n2O)cc1 | -0.796
13 | COc1ccc(C2CC(=O)Nc3sc(=N)c4c(N)c(C#N)c(N)nc4c32)cc1OC (stereo not drawn) | 9.8
14 | CN(C)/C=C(/C(=O)c1ccccc1)n1cncn1 | 21.2
15 | CCOC(=O)C(NCc1ccccc1OC)(NC(=O)CC)C(F)(F)F (stereo not drawn) | 7.33
16 | Cc1cc2c(ncn2C)c(NS(=O)(=O)c2ccc(Cl)cc2)c1C | -1.18
17 | CC1=C(n2nnc3ccccc32)C(c2ccccc2)C(C#N)=C(N)O1 (stereo not drawn) | 1.42
18 | CCOC(=O)Cn1cc(/C=N/N2C(=O)C3C4C=CC(C4)C3C2=O)c2ccccc21 (stereo not drawn) | 4.2
19 | CCOCCCNC(=O)c1c(N)n(-c2ccc3c(c2)OCO3)c2nc3ccccc3nc12 | 11.7
20 | Cc1cc(NC(=O)CSCC(=O)N(C)Cc2c(F)cccc2Cl)no1 | -1.13
21 | Nc1nnc(CCOc2ccccc2Cl)s1 | -0.794
22 | O=C(NNS(=O)(=O)c1ccc(F)cc1)c1ccc([N+](=O)[O-])cc1Cl | 8.08
23 | COc1cccc(N2C(=O)CC(=O)NC2=O)c1 | -10.4
24 | Cc1cc(C)c2[nH]c3nc(SCC(=O)O)nnc3c2c1 | 20.3

From publication PMC4336329 (PLoS ONE, 2015)
